Out of some 110,000 compounds screened, about 230 (0.21%) showed an effect of 50% or more. This is one part of the list.
Target: DPAP1 (Plasmodium falciparum, UniProt Q8IIJ9)
Assay: primary screen, percent inhibition; read by cleavage of a fluorogenic dipeptide substrate; higher = more effect of the substance
Parameters: species or system P. falciparum D10 trophozoite lysates; single well
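Note: 30 min substrate incubation versus DMSO and 10 µM JCP410 controls.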

Chain of DPAP1 (Q8IIJ9 whole entry, looked up): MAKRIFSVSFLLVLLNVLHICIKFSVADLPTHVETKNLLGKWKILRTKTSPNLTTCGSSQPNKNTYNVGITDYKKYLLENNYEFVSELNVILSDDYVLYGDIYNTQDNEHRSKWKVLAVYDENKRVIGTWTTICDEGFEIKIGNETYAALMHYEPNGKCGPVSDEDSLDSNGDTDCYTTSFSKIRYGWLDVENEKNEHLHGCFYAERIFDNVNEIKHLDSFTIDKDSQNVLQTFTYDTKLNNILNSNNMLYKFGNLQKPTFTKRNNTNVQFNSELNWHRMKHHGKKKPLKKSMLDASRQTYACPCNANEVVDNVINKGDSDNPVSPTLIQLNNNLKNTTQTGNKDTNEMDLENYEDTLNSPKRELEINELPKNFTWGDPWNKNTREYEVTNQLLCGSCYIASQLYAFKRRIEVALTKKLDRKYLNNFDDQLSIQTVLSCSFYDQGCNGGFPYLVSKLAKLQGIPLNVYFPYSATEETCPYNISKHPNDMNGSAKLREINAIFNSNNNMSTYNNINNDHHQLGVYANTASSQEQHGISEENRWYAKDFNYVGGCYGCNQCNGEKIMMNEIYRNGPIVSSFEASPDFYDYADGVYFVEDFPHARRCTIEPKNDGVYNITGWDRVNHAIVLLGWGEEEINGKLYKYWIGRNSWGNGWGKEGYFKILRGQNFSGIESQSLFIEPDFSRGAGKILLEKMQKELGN

Row | SMILES | % Inhibition @ 10 uM [%]
1 | COc1cc(C2N3CC4(C)CN2CC(C)(C3)C4=O)ccc1O (centres unmarked) | -2.55
2 | Cc1cccc(C)c1NC(=O)c1cnn(C)c1C | -4.18
3 | CCN(CC)CCNc1nc2c(c(=O)n(C)c(=O)n2C)n1Cc1c(F)cccc1Cl | -3.53
4 | Cc1ccc(Cn2c(C)c(CNCCc3ccccc3C)c(C(=O)O)c2C)cc1 | -9.31
5 | COC(=O)c1nnn(-c2ccc(C)c(C)c2)c1C(=O)OC | 1.85
6 | COc1cccc(C(=O)Nc2ccc3nn(-c4ccc(N(C)C)cc4)nc3c2)c1 | 20.6
7 | CC1CCCN(C/C=C/c2ccc(N(C)C)cc2)C1 (centres unmarked) | -5.94
8 | COc1cc(C2C3=C(O)CC(C)(C)CC3=NC(C)=C2C(=O)Nc2ccccn2)cc(OC)c1OC (centres unmarked) | -2.07
9 | O=C(N1CCN(Cc2ccc3c(c2)OCO3)CC1)N(c1ccccc1)c1ccccc1 | -1.95
10 | COc1ccc2c(CNCCc3ccc(C)cc3)c(C(=O)O)n(Cc3cccc(F)c3)c2c1 | 2.96
11 | CCOC(=O)N1CCC(N2C(=O)c3ccc(C(=O)NCCOC)cc3C2=O)CC1 | -4.69
12 | O=C(NCc1ccc(CNC(=O)c2ccccc2)cc1)c1ccccc1 | 0.0345
13 | O=C(NCc1ccco1)C1CCN(c2nc3ccccc3n2Cc2ccccc2F)CC1 | -1.36
14 | CCN(CC)CCN1C(=O)C(O)=C(C(=O)c2ccc3c(c2)CC(C)O3)C1c1cccs1 (centres unmarked) | -1.78
15 | CCOC(=O)c1c(N)nn(C(=O)c2ccccc2)c1-c1ccccc1 | 1.62
16 | COc1ccc(CN2CCN(c3ccccc3)CC2)cc1C | -0.192
17 | N#CCNC(=O)[C@H](CS(=O)(=O)Cc1ccccc1)NC(=O)c1cc2ccccc2o1 | -1.7
18 | N#CCNC(=O)C(CC1CCCCC1)C(=O)NCc1ccc([N+](=O)[O-])cc1 (centres unmarked) | -2.03
19 | N#C/C(=C/c1ccc(O)cc1)c1nc(-c2ccc(Cl)c(Cl)c2)cs1 | 1.44
20 | CC(C(=O)NCc1ccco1)n1ccc2cc(S(=O)(=O)N3CCCC3)ccc21 (centres unmarked) | -3.26
21 | CCN1CCN(C(=S)Nc2ccsc2C(=O)OC)CC1 | 5.95
22 | CCOC(=O)C1=C(CC)OC(N)=C(C#N)C1c1ccsc1 (centres unmarked) | 1.08
23 | Cc1ccc(C(=O)C2(C)N(O)C(C)C(c3cccs3)=[N+]2[O-])cc1 (centres unmarked) | 1.84
24 | CCOC(=O)c1oc2ccc(Br)cc2c1NC(=O)CCN1CCCCC1 | 4.95
25 | COc1cc(OC)c(NS(=O)(=O)c2ccccc2)cc1Cl | -5.13

Row | SMILES | % Inhibition @ 10 uM [%]
26 | CCOc1ccccc1NC(=O)c1ccncc1 | -0.00273
27 | O=S(=O)(Nc1ccc(S(=O)(=O)N2CCOCC2)cc1)c1ccc2ccccc2c1 | -1.17
28 | COc1ccc(C(=O)Nc2cccc(C)c2)cc1S(=O)(=O)N1CCOCC1 | 2.43
29 | COc1ccc(OC)c(-c2cc(C(=O)Nc3cccnc3Cl)c3ccccc3n2)c1 | 0.907
30 | CSc1nc2c(sc3ccccc32)c(=O)n1CCCC(=O)NCC1CCCO1 (centres unmarked) | 2.47
31 | O=C(Nc1cc(C(F)(F)F)ccc1Cl)c1ccc([N+](=O)[O-])o1 | -1.64
32 | COc1cccc2c(O)c3c(cnn3C)nc12 | -2.63
33 | COc1ccc(-n2cnc3ccccc32)cc1OC | -10.9
34 | O=C(NCc1ccc(Cl)cc1)C1CCCN(c2ncnc3c2sc2cccc(F)c23)C1 (centres unmarked) | 4.02
35 | Cc1ccc(S(=O)(=O)N(C)CCCC(=O)Nc2cccc(C)c2)cc1 | -3.78
36 | Cc1cc(C)cc(NC(=O)CN(c2cccc(Cl)c2C)S(C)(=O)=O)c1 | -5.92
37 | O=C(c1ccco1)N1CCN(c2cnn(-c3nc4ccccc4s3)c(=O)c2Cl)CC1 | 4.47
38 | Cc1cc(NC(=O)CSc2nc3cccnc3[nH]2)no1 | -1.75
39 | c1ccc(-c2nnc(CN3CCN(C4CCCCC4)CC3)o2)cc1 | 4.95
40 | Cc1nc2sc3c(c2c(=O)o1)CCC(C)C3 (centres unmarked) | 0.00773
41 | CN(C)CC(C)(C)CNC1C2CC3CC(C2)CC1C3 (centres unmarked) | -0.603
42 | Cc1cc(NC(=O)c2ccc(F)cc2)n(Cc2cccc3ccccc23)n1 | -2.28
43 | CC(C)[C@H](NC(=O)OCc1ccccc1)C(=O)NCC#N | -10.7
44 | CCN(CC)CCNC(=O)Cn1ncc2c(C)n(Cc3ccccc3)c(C)c2c1=O | -5.81
45 | Cc1cccnc1NCC(O)COc1ccccc1 (centres unmarked) | -4.35
46 | Cc1cc([N+](=O)[O-])nn1CC(=O)NCC(C)C | -5.11
47 | COc1ccc(CNCc2c(C(=O)O)c(C)n(Cc3ccccc3C)c2C)cc1 | -3.67
48 | Cc1ccc(NC(=O)c2c(C(=O)O)cccc2[N+](=O)[O-])cc1 | 1.9
49 | O=C(CC1S/C(=N\c2ccccc2)N(CCO)C1=O)Nc1cccc(Cl)c1 (centres unmarked) | -7.23
50 | COC(=O)CNc1ccnc(O)c1C#N | 1

Row | SMILES | % Inhibition @ 10 uM [%]
51 | O=C1S/C(=C/c2cccnc2)C(=O)N1Cc1ccccc1 | -0.564
52 | O=C(O)CCSc1nc(O)cc(-c2ccccc2)n1 | -4.59
53 | Cc1ccnc(NS(=O)(=O)c2ccccc2)c1 | 0.685
54 | O=C(O)C1CCCCC1C(=O)Nc1cnn(Cc2ccccc2)c1 (centres unmarked) | 2.69
55 | O=C(NCCc1ccccc1)c1ccc(C(=O)c2ccccc2)o1 | -0.171
56 | Cc1cc(OCC(=O)NC2CCCC2)cc(C)c1Cl | 1.04
57 | O=C(NC1CCCCC1)c1csc2c1CCCC2 | -4.12
58 | CCC(C)NC(=O)c1ccc2c(Cl)c3c(nc2c1)CCCC3 (centres unmarked) | 5.88
59 | Cc1ccc(/C(O)=C/C=N/c2ccc(S(=O)(=O)Nc3cc(C)nc(C)n3)cc2)cc1 | 0.658
60 | O=C1N=C(N2CCCCC2)S/C1=C\c1ccc2c(c1)OCO2 | 3.87
61 | CCOc1ccc(N2C(=O)C3C(C(C)=O)=NN(c4cccc(C)c4)C3C2=O)cc1 (centres unmarked) | -3.87
62 | CC1=C(c2ccc(C(C)C)cc2)S(=O)(=O)N=C1N1CCC2(CC1)OCCO2 | 5.23
63 | CN(Cc1ccccc1)C(=O)CN(c1ccccc1)S(C)(=O)=O | -3.38
64 | CCNC(=O)c1c(C)c(C(=O)OCC)n(CC)c1C | -7.18
65 | CCc1ccc(Oc2nc3ccccn3c(=O)c2/C=C(\C#N)S(=O)(=O)c2ccc(Cl)cc2)cc1 | 1.19
66 | CCOC(=O)N1CCN(S(=O)(=O)c2ccc(OC)cc2)CC1 | -5.85
67 | CN1CCN(CCc2nnc(S)n2-c2ccc([N+](=O)[O-])cc2)CC1 | -6.36
68 | COc1cc(-c2ccc(NC(=O)c3ccc(C)o3)c(OC)c2)ccc1NC(=O)c1ccc(C)o1 | -5.13
69 | CSC1=C(C#N)C(c2cccs2)CC(=O)N1 (centres unmarked) | -2.44
70 | CCCCOc1ccc(C(=O)Nc2sc3c(c2C(=O)OCC)CC(C)(C)OC3)cc1 | 5.41
71 | COc1ccc(NC(=O)c2cc(OC)c(OC)c(OC)c2)cn1 | -7.18
72 | O=C1CC(NC23CC4CC(CC(C4)C2)C3)C(=O)N1c1ccc(Cl)cc1 (centres unmarked) | 1.4
73 | Cc1c2cnn(CC(=O)N3CCOCC3)c(=O)c2c(C)n1Cc1ccccc1 | -5.81
74 | Nc1cc(=O)n2c(n1)SCC2CS(=O)(=O)c1ccccc1 (centres unmarked) | -1.52
75 | COc1ccc(CCN2C(=O)CCn3c2nc2c3c(=O)[nH]c(=O)n2C)cc1OC | 1.7

Row | SMILES | % Inhibition @ 10 uM [%]
76 | c1ccc(-c2csc3ncnc(N4CCCCC4)c23)cc1 | 0.812
77 | N=C(NC(=O)c1sc2ccccc2c1Cl)Nc1nc2ccccc2o1 | 0.343
78 | CCOC(=O)C1=C(CSc2ccc3ccccc3n2)NC(=O)NC1c1cc(C)ccc1C (centres unmarked) | -2.63
79 | Cc1ccc(C(=O)Nc2cccc(Oc3ccc(C(=O)O)c(C(=O)O)c3)c2)cc1 | 2.05
80 | O=C(Cn1c2ccccc2c2nc3n(c(=O)c21)CCS3)c1ccc(F)cc1 | -4.04
81 | Cc1nc(NCc2ccc3c(c2)OCO3)nc2c1C(=O)c1ccccc1-2 | 2.31
82 | CCCCN(CC)CCCNC(=O)c1ccc(CS(=O)(=O)c2ccccc2C)o1 | 0.458
83 | O=C(NCc1ccco1)C1CCC(CNS(=O)(=O)c2cccc3cccnc23)CC1 (centres unmarked) | -6.07
84 | O=C(NCCN1CCOCC1)c1ccc(-c2ccccc2)cc1 | -2.09
85 | Cc1c(C(=O)Nc2cc(Cl)c(Cl)cc2Cl)cccc1[N+](=O)[O-] | 0.827
86 | Cc1nnc(NC(=O)c2nc(SCc3ccc(F)cc3)ncc2Cl)s1 | -0.946
87 | O=C1CC(Sc2ncccn2)C(=O)N1c1ccc(-c2ccccc2)cc1 (centres unmarked) | -4.15
88 | CCOc1ccc(CCNC(=O)c2ccc(CS(=O)Cc3ccc(Cl)cc3)o2)cc1OCC (centres unmarked) | -0.999
89 | COc1cccc(-c2ccc(S(=O)(=O)N[C@@H](CC(C)C)C(=O)NCC#N)cc2)c1 | -0.207
90 | CCSC1=C(C#N)C(c2ccccc2Cl)C(C(C)=O)=C(C)N1 (centres unmarked) | -5.94
91 | Cc1cccc(NC(=O)C(Cc2ccc([N+](=O)[O-])cc2)N2C(=O)c3ccccc3C2=O)c1 (centres unmarked) | -8.03
92 | CCCCNCC(=O)n1c(=O)sc2ccccc21 | 1.57
93 | Cc1ccnc(NC(=O)CN2C(=O)c3ccccc3C2=O)c1 | -3.41
94 | CCCCc1ccc(-c2csc(/C(C#N)=C\c3sccc3C)n2)cc1 | 1.13
95 | CCCCSc1nc2c(c(=O)[nH]c(=O)n2C)n1CCC | 0.851
96 | CC(=O)NC12CC3CC(C)(C1)CC(NC(C)=O)(C3)C2 | 2.46
97 | CCCNC(=O)CN(c1ccc(Cl)cc1)S(=O)(=O)c1ccc(C)cc1 | 0.913
98 | Cc1c(C)n(Cc2ccccc2)c2ccc(C(=O)N3CCCC3)cc12 | 1.78
